# Measurements reported in PubChem BioAssay (NCATS).
# Inconclusive means that the source gave no clear call. Such entries were picked first, then a sample of the others. For some assays here: Potencies of inconclusive entries are left out as doubtful fits. The source made the active and inactive calls. Unless noted, calls follow the shape of the dose curve; as a rule, active = well fitted curve in the direction sought with a large enough effect; inconclusive = small, poorly fitted or top-dose-only effect, or another doubt; inactive = no such curve, though single readings can be large; an effect the other way counts as inactive or inconclusive.
# Columns and labels:
# Furin (Homo sapiens) = Furin (Homo sapiens) (UniProt P09958); test: Furin counterscreen qHTS for Zika virus inhibitors (AID 1347149); settings: furin enzymatic counterscreen, fluorogenic substrate; activity change, negative = inhibition: at 57.5 µM (top of the series); also: nearly all actives have a fitted effect of over 70% in size; also: potency is read from the fitted curve at half-maximal effect;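 as to activity change, negative = inhibition: purified recombinant full-length human furin enzyme at 5 nM; fluorescence gain from furin cutting a BOC-RVRR-AMC peptide substrate over 15 min; top concentration of the series differs between compounds; plate controls were no-inhibitor control for no effect and no-enzyme control for full effect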
# Procedure, shortened: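 Counterscreen measures cleavage of 2 microM BOC-RVRR-AMC, below its ~15 microM Km, by 5 nM full-length human furin at pH 7.0 after a 15-min compound preincubation. Inhibition derives from the 15-min fluorescence increase at 37C.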
# [1] = ZIKV-mCherry secondary qHTS for Zika virus inhibitors (AID 1347158); also: potency is read from the fitted curve at half-maximal effect
# Procedure, shortened: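 This orthogonal imaging screen measured ZIKV-mCherry infection of Vero cells exposed to compound, MOI 1, 48-72 h. Percent infection came from segmented nuclei scored mCherry-positive above 3 SD of negative controls.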
# [2] = tested on: Zika virus NS2B-NS3 protease (unlinked complex); test: Primary screen GU Rhodamine qHTS for Zika virus inhibitors: Unlinked NS2B-NS3 protease assay (AID 1347159); also: nearly all actives have a fitted effect of over 60% in size; also: potency is read from the fitted curve at half-maximal effect; as to activity change, negative = inhibition: % is scaled to controls: 0 for no effect and ±100 for the full control effect
# Procedure, shortened: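 Enzyme 25 nM in Tris-HCl pH 8.0 + 0.01% Tween 20; compounds up to 114 microM, 15 min RT dark; + Rhod110 substrate 1.5 microM; read t0 and 15 min; delta fluorescence → % inhibition → 4-parameter Hill fit.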
# [3] = Confirmatory screen NINDS Rhodamine qHTS for Zika virus inhibitors (AID 1347161); also: potency is read from the fitted curve at half-maximal effect; nearly all actives have a fitted effect of over 60% in size
# Procedure, shortened: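 Purified linked NS2B-NS3 protease (NS2B hydrophilic domain joined to NS3 protease by flexible linker), 25 nM in 10 mM Tris-HCl pH 8.0, 0.01% Tween 20. Compounds titrated, 15 min preincubation at room temperature; 1.5 microM Rhodamine110 substrate, FITC fluorescence change over 15 min.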
# [4] = tested on: Zika virus NS2B-NS3 protease (linked construct); test: 384 well plate NINDS Rhodamine confirmatory qHTS for Zika virus inhibitors (AID 1347164);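 also: fluorescence from protease cleavage of Ac-LKRR-rhodamine 110 substrate; potency is read from the fitted curve at half-maximal effect; nearly all actives have a fitted effect of over 65% in size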
# Procedure, shortened: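 Fluorescence read at ex 485 nm/em 538 nm, 25 min after adding 10 microM Ac-LKRR-Rd substrate at room temperature in the dark; signal normalized to no-enzyme and no-inhibitor controls. Enzyme final 5, 30 or 60 nM; compounds, ~15 min preincubation.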
# [5] = Tertiary RLuc qRT-PCR qHTS assay for Zika virus inhibitors (AID 1347169); also: potency is read from the fitted curve at half-maximal effect; nearly all actives have a fitted effect of over 55% in size
# Procedure, shortened: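 Luminescence read-out: live-cell Renilla luciferase substrate applied to infected Vero cells, signal measured after 1-1.5 hrs. Cells had received compound before ZIKV-RLuc (Cambodian strain, MOI 1-2) infection and were incubated 48-72 hrs at 37 degrees C.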
# [6] = Primary qHTS for inhibitors of nuclear receptor binding SET domain protein 2 (NSD2) in an isogenic RCH-ACV NSD2 p.E1099K mutant (9B) (AID 1645876); also: nearly all actives have a fitted effect of over 70% in size; also: potency is read from the fitted curve at half-maximal effect
# [7] = Primary qHTS for inhibitors of nuclear receptor binding SET domain protein 2 (NSD2) in an RCH-ACV wild type WT cells (2C) (AID 1645877); settings: activity change, negative = cell killing: at 44.9 µM (top of the series) unless noted; also: nearly all actives have a fitted effect of over 70% in size; also: potency is read from the fitted curve at half-maximal effect; as to activity change, negative = cell killing: % is scaled to controls: 0 for no effect and ±100 for the full control effect
# HEK293 = test: Cytotoxic Profiling of Annotated Libraries Using Quantitative High-Throughput Screening (AID 1296008); settings: Five cell lines viability, CellTiter-Glo ATP luminescence, 48-72 h; max response: stronger effect = lower value; also: nearly all actives have a fitted effect of over 60% in size; also: potency is read from the fitted curve at half-maximal effect; as to max response: % is scaled to controls: 0 for no effect and ±100 for the full control effect
# Procedure, shortened: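 Cytotoxicity was measured as CellTiter-Glo ATP luminescence, read after 10 min at room temperature. Compound treatment of the cells lasted 48 or 72 hr at 37 degrees Celsius in a qHTS format.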
# [8] = tested on: Zika virus NS2B-NS3 protease (linked construct); test: Confirmatory screen NINDS AMC qHTS for Zika virus inhibitors (AID 1347152);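 also: AMC fluorescence gain from cleaved Bz-Nle-KRR-AMC substrate over 15 min; top concentration of the series differs between compounds; 0% = no-inhibitor control and -100% = no-enzyme control; nearly all actives have a fitted effect of over 70% in size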
# Procedure, shortened: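 Linked NS2B-NS3 1 nM, Tris pH 8.0/0.01% Tween 20; cpd 15 min RT dark; + Nle-KRR-AMC 10 µM (Km 18.3 µM); read 0 and 15 min, 340/450 nm; %inh vs controls, 4-param Hill.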
# [9] = tested on: Zika virus NS2B-NS3 protease (unlinked complex); test: Confirmatory screen GU AMC qHTS for Zika virus inhibitors (AID 1347153)
# Procedure, shortened: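 Fluorescence change (ex 340/em 450 nm) over 15 min, ~20% substrate conversion, normalized to no-inhibitor and no-enzyme controls, then Hill-fitted. Unlinked protease at 25 nM; AMC peptide 10 µM.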
# [10] = tested on: Zika virus NS2B-NS3 protease (linked construct); test: Primary screen NINDS Rhodamine qHTS for Zika virus inhibitors (AID 1347160); settings: activity change, negative = inhibition: at 57.1 µM (top of the series) unless noted; also: potency is read from the fitted curve at half-maximal effect; nearly all actives have a fitted effect of over 55% in size
# Procedure, shortened: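 Enzyme (25 nM, linked NS2B-NS3) was preincubated 15 min with compound in 10 mM Tris-HCl pH 8.0, 0.01% Tween 20. Rhodamine110 substrate (1.5 microM) was then added and fluorescence read at start and after 15 min.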
# [11] = molecular target: Cytochrome P450 2D6 (Homo sapiens) (UniProt P10635); test: Cytochrome P450 family 2 subfamily D member 6 (CYP2D6) small molecule antagonists: luciferase biochemical (cell-free) qHTS assay (AID 1645840; active = well fitted curve in the direction sought with a large enough effect in the repeat runs; inconclusive = weak or mixed curves; inactive = no such curve, though single readings can be large; an effect the other way counts as inactive or inconclusive; also: potency is read from the fitted curve at half-maximal effect; nearly all actives have a fitted effect of over 55% in size)
# Procedure, shortened: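 P450-Glo CYP2D6 system: proluciferin substrate converted by enzyme to luciferin, read by luminescence proportional to activity. Enzyme-substrate mix with compound 10 min at room temperature, then NADPH regeneration 1 h before detection reagent.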
# [12] = qHTS of pediatric cancer cell lines to identify multiple opportunities for drug repurposing: Primary screen for A673 cells (AID 1347092); settings: A673 Ewing sarcoma viability, CellTiter-Glo ATP luminescence, 48 h; activity change, negative = cytotoxic: at 46 µM (top of the series); also: % is scaled to controls: 0 for no effect and ±100 for the full control effect; nearly all actives have a fitted effect of over 45% in size
# Procedure, shortened: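 48 h compound exposure, A673, 500-1,000 cells/well, 37 degrees C/5% CO2. MIPE: 11-point, 0.78 nM-46 µM; NPC: 8-point, 0.59 nM-46 µM (final). Readout CellTiter-Glo luminescence after 15 min RT.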
# [13] = qHTS of pediatric cancer cell lines to identify multiple opportunities for drug repurposing: Primary screen for SK-N-MC cells (AID 1347093); settings: SK-N-MC viability, CellTiter-Glo luminescence, 48 h; activity change, negative = cytotoxic: at 46 µM (top of the series); also: potency is read from the fitted curve at half-maximal effect
# Procedure, shortened: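 Metabolically active cells were quantified by ATP-dependent luminescence (CellTiter-Glo, 15 min at room temperature) following 48 h treatment. Cells had been plated at 500-1,000 per well and settled for 5 h beforehand.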
# [14] = qHTS of pediatric cancer cell lines to identify multiple opportunities for drug repurposing: Primary screen for NB-EBc1 cells (AID 1347095);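 also: plate controls were DMSO neutral control for no effect and bortezomib for full effect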
# Procedure, shortened: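 Plated cells (500-1,000 per well, growth media) were allowed to settle for 5 hours, treated with compound dilutions for 48 hours, then lysed with CellTiter-Glo for 15 min at room temperature before luminescence reading.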
# [15] = qHTS of pediatric cancer cell lines to identify multiple opportunities for drug repurposing: Primary screen for U-2 OS cells (AID 1347096);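 also: plate controls were DMSO wells for no effect and bortezomib positive control wells for full effect; nearly all actives have a fitted effect of over 50% in size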
# Procedure, shortened: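 Cells (500-1,000/well) rested 5 h, then received compounds for 48 h; metabolically active cells were measured by CellTiter-Glo luminescence. Final concentrations spanned up to 46 µM (MIPE, 11-point) or 0.59 nM-46 µM (NPC, 8-point) in primary screens, 11-point in follow-ups.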
# [16] = qHTS of pediatric cancer cell lines to identify multiple opportunities for drug repurposing: Primary screen for control Hh wild type fibroblast cells (AID 1347106);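 also: % is scaled to controls: 0 for no effect and ±100 for the full control effect; a drop in luminescence marks cytotoxicity and a rise apparent proliferation; nearly all actives have a fitted effect of over 55% in size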
# Procedure, shortened: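 Cells (500-1,000/well) in growth media were settled 5 h at 37 degrees C, then given compounds for 48 h. Viability was read as CellTiter-Glo luminescence. Primary runs used MIPE at 11 points (0.78 nM-46 µM) and NPC at 8 points (0.59 nM-46 µM); follow-ups used 11 points.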
# [17] = molecular target: Cytochrome P450 3A4 (Homo sapiens) (UniProt P08684); test: Cytochrome P450 family 3 subfamily A member 4 (CYP3A4) small molecule antagonists: luciferase qHTS assay (AID 1645841; active = well fitted curve in the direction sought with a large enough effect in the repeat runs; inconclusive = weak or mixed curves; inactive = no such curve, though single readings can be large; an effect the other way counts as inactive or inconclusive; also: potency is read from the fitted curve at half-maximal effect; nearly all actives have a fitted effect of over 45% in size)
# Procedure, shortened: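 Luminescent CYP3A4 activity readout: compounds plus enzyme-substrate mix 10 min at room temperature, reaction started with NADPH regenerating system for 1 h, stopped with detection reagent, read after 20 min. Ketoconazole served as control.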
# [18] = Primary fluorescence-based thiol-reactive (MSTI) qHTS assay for identification of artifact compounds. (AID 1845221);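 also: potency is read from the fitted curve at half-maximal effect; thiol-reactive compounds lower the probe fluorescence signal; nearly all actives have a fitted effect of over 65% in size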
# Procedure, shortened: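 qHTS titration of compound; 4 uM MSTI, PBS pH 7.4, 2% DMSO; 1 h RT, dark; fluorescence 525/598 nm; normalized to Acetyl-MSTI and MSTI; 4-parameter Hill fit.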
# Tags tell the direction and shape of the fitted curve.
# Chain of UniProt P09958 (P09958 whole entry, looked up): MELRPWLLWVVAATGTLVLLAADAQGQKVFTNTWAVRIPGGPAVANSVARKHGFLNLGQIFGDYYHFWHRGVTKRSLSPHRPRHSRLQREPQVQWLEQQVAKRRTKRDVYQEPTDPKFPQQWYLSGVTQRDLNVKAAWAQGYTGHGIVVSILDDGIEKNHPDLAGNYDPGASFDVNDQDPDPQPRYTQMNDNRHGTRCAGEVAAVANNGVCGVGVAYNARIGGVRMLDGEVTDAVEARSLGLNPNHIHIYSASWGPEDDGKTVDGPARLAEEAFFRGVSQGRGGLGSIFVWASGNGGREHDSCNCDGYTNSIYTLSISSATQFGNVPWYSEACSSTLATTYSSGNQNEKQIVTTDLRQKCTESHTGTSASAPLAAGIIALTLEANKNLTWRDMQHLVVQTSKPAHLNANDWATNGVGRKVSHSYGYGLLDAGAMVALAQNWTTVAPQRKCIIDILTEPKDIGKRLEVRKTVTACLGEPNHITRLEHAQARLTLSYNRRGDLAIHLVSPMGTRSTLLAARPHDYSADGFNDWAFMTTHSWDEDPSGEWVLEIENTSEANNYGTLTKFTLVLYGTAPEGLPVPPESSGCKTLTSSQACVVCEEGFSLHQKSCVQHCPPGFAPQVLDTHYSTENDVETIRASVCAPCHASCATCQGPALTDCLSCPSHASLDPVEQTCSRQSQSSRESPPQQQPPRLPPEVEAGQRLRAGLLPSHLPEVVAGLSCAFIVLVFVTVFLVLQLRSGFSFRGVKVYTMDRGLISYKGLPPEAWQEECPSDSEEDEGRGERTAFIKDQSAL
# Chain of UniProt P10635 (P10635 whole entry, looked up): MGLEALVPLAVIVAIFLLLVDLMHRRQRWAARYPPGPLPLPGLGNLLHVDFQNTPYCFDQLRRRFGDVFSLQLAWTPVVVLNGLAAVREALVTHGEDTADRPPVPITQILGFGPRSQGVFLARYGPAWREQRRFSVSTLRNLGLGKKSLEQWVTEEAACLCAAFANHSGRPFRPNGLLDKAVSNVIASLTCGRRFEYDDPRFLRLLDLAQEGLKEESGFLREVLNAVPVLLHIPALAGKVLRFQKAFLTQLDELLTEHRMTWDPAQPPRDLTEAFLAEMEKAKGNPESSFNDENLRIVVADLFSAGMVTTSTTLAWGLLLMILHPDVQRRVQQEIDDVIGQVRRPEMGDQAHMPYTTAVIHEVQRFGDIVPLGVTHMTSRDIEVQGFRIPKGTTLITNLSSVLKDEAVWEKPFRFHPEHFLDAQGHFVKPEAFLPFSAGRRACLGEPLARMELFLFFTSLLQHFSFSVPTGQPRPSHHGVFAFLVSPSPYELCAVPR
# Chain of UniProt P08684 (P08684 whole entry, looked up): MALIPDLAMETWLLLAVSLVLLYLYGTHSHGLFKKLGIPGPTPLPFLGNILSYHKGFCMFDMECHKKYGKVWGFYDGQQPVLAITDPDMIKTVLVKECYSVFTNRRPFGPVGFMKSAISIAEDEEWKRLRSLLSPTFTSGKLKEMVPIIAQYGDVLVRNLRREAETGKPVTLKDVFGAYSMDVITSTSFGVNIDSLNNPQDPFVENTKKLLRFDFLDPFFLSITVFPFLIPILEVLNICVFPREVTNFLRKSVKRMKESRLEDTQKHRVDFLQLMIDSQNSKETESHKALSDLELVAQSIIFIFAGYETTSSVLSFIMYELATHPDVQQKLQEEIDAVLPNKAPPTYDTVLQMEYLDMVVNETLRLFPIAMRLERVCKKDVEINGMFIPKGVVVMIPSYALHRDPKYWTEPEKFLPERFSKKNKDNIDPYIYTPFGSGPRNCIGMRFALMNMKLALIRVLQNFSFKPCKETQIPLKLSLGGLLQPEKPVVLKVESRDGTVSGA
compound,measurement,setting,value
O=C(O)c1ccc(S(=O)(=O)N(Cc2ccc(OC(F)(F)F)cc2)c2ncc(C(F)(F)F)cc2Cl)cc1,Potency,Furin (Homo sapiens),"inconclusive [inhibitor, single point]"
same,Potency,[1],"inconclusive [inhibitor, full curve, poor fit]"
same,Potency,[2],active: 4.47 µM
same,Potency,[3],active: 3.93 µM
same,Potency,[4],"inconclusive [inhibitor, full curve]"
same,Potency,[5],active: 18.6 µM
same,Potency,[6],"inconclusive [inhibitor, single point]"
same,Potency,[7],"inconclusive [inhibitor, single point]"
same,Potency,HEK293,"inconclusive [inhibitor, single point]"
CC(C)(O)C1CC=C(C(=O)OCC2OC(Oc3c(O)cc(C(=O)O)cc3O)C(O)C(O)C2O)CC1 (stereo not given),"activity change, negative = inhibition",Furin (Homo sapiens),inconclusive: -32.5% [inhibitor]
same,Potency,[8],inactive
same,Potency,[9],"inconclusive [inhibitor, full curve]"
same,Potency,[10],"inconclusive [inhibitor, partial curve, poor fit]"
same,outcome,HEK293,inactive
C=C1CCN([C@H](C)[C@](O)(Cn2cncn2)c2ccc(F)cc2F)CC1,Potency,[2],"inconclusive [inhibitor, partial curve, poor fit]"
same,Potency,[11],active: 23.9 µM
same,Potency,[6],"inconclusive [inhibitor, single point]"
same,Potency,[7],"inconclusive [inhibitor, partial curve]"
same,Potency,HEK293,"inconclusive [inhibitor, single point]"
COc1ccccc1N1CCN(CC(O)COc2cc(OC)c(OC)c(OC)c2)CC1 (stereo not given),Potency,[12],inactive
same,Potency,[13],"inconclusive [cytotoxic, single point]"
same,Potency,[14],inactive
same,Potency,[15],inactive
same,Potency,[16],inactive
same,Potency,[11],"inconclusive [inhibitor, single point]"
same,Potency,[17],"inconclusive [falling, single point]"
same,max response,HEK293,inactive: 2.4%
O=C(O)CCc1cccc(O)c1O[C@@H]1O[C@H](CO)[C@@H](O)[C@H](O)[C@H]1O,Potency,[2],"inconclusive [inhibitor, partial curve, poor fit]"
same,Potency,[7],inactive
same,Potency,[18],active: 14.7 µM
same,max response,HEK293,inactive: -3.2%
CC1C(=O)OCC2=CC[N+]3([O-])CCC(OC(=O)C(C)(O)C1(C)O)C23 (stereo not given),Potency,[2],inactive
same,Potency,[6],inactive
same,Potency,[18],"inconclusive [inhibitor, partial curve, poor fit]"
same,max response,HEK293,inactive: 3.51%
